# Measurements as given in the supplement of paper PMC8728848.
# Some of the results follow.
# Columns and labels:
# Experiment in all cases: glycan array binding signal (z-score within array); higher = stronger binding
# Conditions in all cases: glycan notation: IUPAC condensed, linker removed
# [1] = molecular target: Neu5Ac(a2-3)Gal(b1-3)GlcNAc(b1-6)GalNAc
# In short: (§1)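 Columns mapping to the same glycan were averaged after glycan names were converted to IUPAC-condensed notation. The data come from 3228 arrays in the Consortium for Functional Glycomics database, limited to those with an available protein sequence. Binding is reported as a within-array Z-score averaged across arrays of one protein sequence and across linkers.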
# [2] = molecular target: Neu5Ac(a2-3)Gal(b1-3)GlcNAc6S
# In short: as §1
# [3] = molecular target: Neu5Ac(a2-3)Gal(b1-3)[Fuc(a1-4)]GlcNAc
# In short: as §1
# [4] = molecular target: Neu5Ac(a2-3)Gal(b1-3)[Fuc(a1-4)]GlcNAc(b1-3)Gal(b1-3)[Fuc(a1-4)]GlcNAc
# In short: as §1
# [5] = molecular target: Neu5Ac(a2-3)Gal(b1-3)[Fuc(a1-4)]GlcNAc(b1-3)Gal(b1-4)[Fuc(a1-3)]GlcNAc
# In short: as §1
# [6] = molecular target: Neu5Ac(a2-3)Gal(b1-3)[GlcNAc(b1-6)]GalNAc
# In short: as §1
# [7] = molecular target: Neu5Ac(a2-3)Gal(b1-3)[Neu5Ac(a2-6)]GalNAc
# In short: as §1
# [8] = molecular target: Neu5Ac(a2-3)Gal(b1-3)[Neu5Ac(a2-6)]GlcNAc(b1-3)[Fuc(a1-3)[Gal(b1-4)]GlcNAc(b1-6)]Gal(b1-4)Glc
# In short: as §1
# [9] = molecular target: Neu5Ac(a2-3)Gal(b1-3)]Neu5Ac(a2-3)Gal(b1-4)]GlcNAc
# In short: as §1
# [10] = molecular target: Neu5Ac(a2-3)Gal(b1-4)Glc
# In short: as §1
# [11] = molecular target: Neu5Ac(a2-3)Gal(b1-4)GlcNAc
# In short: as §1
# [12] = molecular target: Neu5Ac(a2-3)Gal(b1-4)GlcNAc(b1-2)Man
# In short: as §1
# [13] = molecular target: Neu5Ac(a2-3)Gal(b1-4)GlcNAc(b1-2)Man(a1-3)[GlcNAc(b1-4)][Neu5Ac(a2-3)Gal(b1-4)GlcNAc(b1-2)Man(a1-6)]Man(b1-4)GlcNAc(b1-4)GlcNAc
# In short: as §1
# [14] = molecular target: Neu5Ac(a2-3)Gal(b1-4)GlcNAc(b1-2)Man(a1-3)[Neu5Ac(a2-3)Gal(b1-4)GlcNAc(b1-2)Man(a1-6)]Man(b1-4)GlcNAc(b1-4)GlcNAc
# In short: as §1
# [15] = molecular target: Neu5Ac(a2-3)Gal(b1-4)GlcNAc(b1-2)Man(a1-3)[Neu5Ac(a2-3)Gal(b1-4)GlcNAc(b1-2)Man(a1-6)]Man(b1-4)GlcNAc(b1-4)[Fuc(a1-6)]GlcNAc
# In short: as §1
# [16] = molecular target: Neu5Ac(a2-3)Gal(b1-4)GlcNAc(b1-2)Man(a1-3)[Neu5Ac(a2-6)Gal(b1-4)GlcNAc(b1-2)Man(a1-6)]Man(b1-4)GlcNAc(b1-4)GlcNAc
# In short: as §1
# [17] = molecular target: Neu5Ac(a2-3)Gal(b1-4)GlcNAc(b1-2)[Neu5Ac(a2-3)Gal(b1-4)GlcNAc(b1-4)]Man(a1-3)[GlcNAc(b1-4)][Neu5Ac(a2-3)Gal(b1-4)GlcNAc(b1-2)[Neu5Ac(a2-3)Gal(b1-4)GlcNAc(b1-6)]Man(a1-6)]Man(b1-4)GlcNAc(b1-4)GlcNAc
# In short: as §1
# [18] = molecular target: Neu5Ac(a2-3)Gal(b1-4)GlcNAc(b1-2)[Neu5Ac(a2-3)Gal(b1-4)GlcNAc(b1-4)]Man(a1-3)[GlcNAc(b1-4)][Neu5Ac(a2-3)Gal(b1-4)GlcNAc(b1-4)Man(a1-6)]Man(b1-4)GlcNAc(b1-4)GlcNAc
# In short: as §1
# [19] = molecular target: Neu5Ac(a2-3)Gal(b1-4)GlcNAc(b1-2)[Neu5Ac(a2-3)Gal(b1-4)GlcNAc(b1-6)]Man(a1-6)[Neu5Ac(a2-3)Gal(b1-4)GlcNAc(b1-2)Man(a1-3)][GlcNAc(b1-4)]Man(b1-4)GlcNAc(b1-4)GlcNAc
# In short: as §1
# [20] = molecular target: Neu5Ac(a2-3)Gal(b1-4)GlcNAc(b1-3)Gal
# In short: as §1
# [21] = molecular target: Neu5Ac(a2-3)Gal(b1-4)GlcNAc(b1-3)Gal(b1-3)GlcNAc
# In short: as §1
# [22] = molecular target: Neu5Ac(a2-3)Gal(b1-4)GlcNAc(b1-3)Gal(b1-4)GlcNAc
# In short: as §1
# [23] = molecular target: Neu5Ac(a2-3)Gal(b1-4)GlcNAc(b1-3)Gal(b1-4)GlcNAc(b1-2)Man(a1-3)[Neu5Ac(a2-3)Gal(b1-4)GlcNAc(b1-3)Gal(b1-4)GlcNAc(b1-2)Man(a1-6)]Man(b1-4)GlcNAc(b1-4)GlcNAc
# In short: as §1
# [24] = molecular target: Neu5Ac(a2-3)Gal(b1-4)GlcNAc(b1-3)Gal(b1-4)GlcNAc(b1-3)Gal(b1-4)GlcNAc
# In short: as §1
# [25] = molecular target: Neu5Ac(a2-3)Gal(b1-4)GlcNAc(b1-3)Gal(b1-4)GlcNAc(b1-3)Gal(b1-4)GlcNAc(b1-2)Man(a1-3)[Neu5Ac(a2-3)Gal(b1-4)GlcNAc(b1-3)Gal(b1-4)GlcNAc(b1-3)Gal(b1-4)GlcNAc(b1-2)Man(a1-6)]GalNAc
# In short: as §1
# [26] = molecular target: Neu5Ac(a2-3)Gal(b1-4)GlcNAc(b1-3)Gal(b1-4)GlcNAc(b1-3)GalNAc
# In short: as §1
# [27] = molecular target: Neu5Ac(a2-3)Gal(b1-4)GlcNAc(b1-3)Gal(b1-4)GlcNAc(b1-3)[Neu5Ac(a2-3)Gal(b1-4)GlcNAc(b1-3)Gal(b1-4)GlcNAc(b1-6)]GalNAc
# In short: as §1
# [28] = molecular target: Neu5Ac(a2-3)Gal(b1-4)GlcNAc(b1-3)Gal(b1-4)GlcNAc(b1-6)[Gal(b1-3)]GalNAc
# In short: as §1
# [29] = molecular target: Neu5Ac(a2-3)Gal(b1-4)GlcNAc(b1-3)Gal(b1-4)[Fuc(a1-3)]GlcNAc
# In short: as §1
# [30] = molecular target: Neu5Ac(a2-3)Gal(b1-4)GlcNAc(b1-3)GalNAc
# In short: as §1
binder,measurement,setting,value
Di AAL2 (Agrocybe aegerita) (protein) MTSNVITQDLPIPVASRGFADIVGFGLDGVVIGRNAVNLQPFLAVKNFAQNAGGWLTTKHVRLIADTTGTGKGDIVGFGNAGVYVSVNNGKNTFADPPKMVIANFGYDAGGWRVEKHLRYLADIRKIGRADIIGFGEKGVLVSRNNGGLNFGPATLVLKDFGYDAGGWRLDRHLRFLADVTGNGHLDIVGFGDKHVFISRNNGDGTFAPAKSVIDNFCIDAGGWKIGDHPRFVADLTGDGTADIIGCGKAGCWVALNNGGGVFGQVKLVINDFGTDKGWQAAKHPRFIADLTGNGRGDVVGFGNAGVYVALNNGDGTFQSAKLVLKDFGVQQGWTVSKHRRFVVDLTGDGCADIIGFGEKETLVSYNDGKGNFGPVKALTNDFSFSGGKWAPETTVCWMANLDSSRHPAPAPMTSNVITQDLPIPVASRGFADIVGFGLDGVVIGRNAVNLQPFLAVKNFAQNAGGWLTTKHVRLIADTTGTGKGDIVGFGNAGVYVSVNNGKNTFADPPKMVIANFGYDAGGWRVEKHLRYLADIRKIGRADIIGFGEKGVLVSRNNGGLNFGPATLVLKDFGYDAGGWRLDRHLRFLADVTGNGHLDIVGFGDKHVFISRNNGDGTFAPAKSVIDNFCIDAGGWKIGDHPRFVADLTGDGTADIIGCGKAGCWVALNNGGGVFGQVKLVINDFGTDKGWQAAKHPRFIADLTGNGRGDVVGFGNAGVYVALNNGDGTFQSAKLVLKDFGVQQGWTVSKHRRFVVDLTGDGCADIIGFGEKETLVSYNDGKGNFGPVKALTNDFSFSGGKWAPETTVCWMANLDSSRH,glycan array binding signal (z-score),[1],-0.299
same,glycan array binding signal (z-score),[2],-0.3
same,glycan array binding signal (z-score),[3],-0.104
same,glycan array binding signal (z-score),[4],-0.117
same,glycan array binding signal (z-score),[5],-0.082
same,glycan array binding signal (z-score),[6],0.175
same,glycan array binding signal (z-score),[7],-0.105
same,glycan array binding signal (z-score),[8],-0.313
same,glycan array binding signal (z-score),[9],0.046
same,glycan array binding signal (z-score),[10],-0.249
same,glycan array binding signal (z-score),[11],-0.17
same,glycan array binding signal (z-score),[12],-0.284
same,glycan array binding signal (z-score),[13],-0.302
same,glycan array binding signal (z-score),[14],-0.291
same,glycan array binding signal (z-score),[15],0.317
same,glycan array binding signal (z-score),[16],-0.26
same,glycan array binding signal (z-score),[17],-0.279
same,glycan array binding signal (z-score),[18],-0.257
same,glycan array binding signal (z-score),[19],-0.313
same,glycan array binding signal (z-score),[20],-0.142
same,glycan array binding signal (z-score),[21],-0.262
same,glycan array binding signal (z-score),[22],-0.198
same,glycan array binding signal (z-score),[23],-0.275
same,glycan array binding signal (z-score),[24],0.016
same,glycan array binding signal (z-score),[25],-0.247
same,glycan array binding signal (z-score),[26],0.279
same,glycan array binding signal (z-score),[27],-0.269
same,glycan array binding signal (z-score),[28],-0.307
same,glycan array binding signal (z-score),[29],-0.132
same,glycan array binding signal (z-score),[30],-0.241
